Results taken from paper PMC4336329 (PLoS ONE, 2015).
Hit rate of the full screen: of about 310,000 compounds, about 14,000 (4.5%) showed an effect of 50% or more. Effects have a minus sign here. Some of the results follow.

Target: human ether-à-go-go-related gene (hERG) potassium channel (human, UniProt Q12809)
Assay: primary screen, population patch clamp on CHO cells stably expressing hERG
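Also: peak tail current of the secondary pulse compared with the same well before compound.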

Sequence of human ether-à-go-go-related gene (hERG) potassium channel (Q12809 whole entry, looked up): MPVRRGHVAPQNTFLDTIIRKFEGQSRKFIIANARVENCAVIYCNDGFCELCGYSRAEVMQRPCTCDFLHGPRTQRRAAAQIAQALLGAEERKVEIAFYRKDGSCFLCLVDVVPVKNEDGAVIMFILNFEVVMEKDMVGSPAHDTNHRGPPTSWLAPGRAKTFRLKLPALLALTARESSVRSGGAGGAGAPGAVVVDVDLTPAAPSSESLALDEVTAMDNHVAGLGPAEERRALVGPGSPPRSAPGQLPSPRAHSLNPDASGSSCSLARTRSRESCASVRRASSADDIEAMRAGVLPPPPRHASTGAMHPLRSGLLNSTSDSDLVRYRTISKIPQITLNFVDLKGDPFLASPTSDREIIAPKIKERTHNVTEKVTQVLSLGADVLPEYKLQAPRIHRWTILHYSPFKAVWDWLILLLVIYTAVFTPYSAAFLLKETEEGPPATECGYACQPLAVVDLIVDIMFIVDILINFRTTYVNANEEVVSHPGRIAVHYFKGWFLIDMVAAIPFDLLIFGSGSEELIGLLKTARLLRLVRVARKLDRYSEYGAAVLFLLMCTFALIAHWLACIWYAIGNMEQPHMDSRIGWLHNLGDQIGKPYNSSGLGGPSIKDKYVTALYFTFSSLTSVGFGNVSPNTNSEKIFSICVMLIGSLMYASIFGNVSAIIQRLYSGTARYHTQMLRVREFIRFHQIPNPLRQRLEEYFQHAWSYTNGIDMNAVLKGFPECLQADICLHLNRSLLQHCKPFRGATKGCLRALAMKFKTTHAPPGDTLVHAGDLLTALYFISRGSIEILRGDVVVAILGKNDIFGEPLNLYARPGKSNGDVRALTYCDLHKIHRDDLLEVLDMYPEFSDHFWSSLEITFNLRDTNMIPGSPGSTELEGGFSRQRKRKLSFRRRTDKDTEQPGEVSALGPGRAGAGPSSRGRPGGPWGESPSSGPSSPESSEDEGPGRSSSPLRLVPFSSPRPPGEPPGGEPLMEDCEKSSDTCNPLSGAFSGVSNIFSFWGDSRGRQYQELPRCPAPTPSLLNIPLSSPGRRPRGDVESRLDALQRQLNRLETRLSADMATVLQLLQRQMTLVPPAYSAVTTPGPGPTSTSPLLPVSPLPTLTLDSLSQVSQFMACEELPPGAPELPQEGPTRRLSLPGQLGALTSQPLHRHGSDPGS

Compound	hERG current change (%, negative = inhibition) at 10uM
O=P(/C(=N/O)N1CCOCC1)(N1CCOCC1)N1CCOCC1	12.1%
O=C(NNc1nc2ccccc2s1)Nc1ccc(F)cc1	3.17%
CN(Cc1c(F)cccc1Cl)C(=O)C1CC(=O)N(CCc2ccccc2)C1 (stereo not drawn)	-34.7%
CC(=O)Nc1sc2c(c1C(c1ccccn1)N1CCN(C)CC1)CCCC2 (stereo not drawn)	-12.9%
COc1ccc(Cn2c(=O)cc(N)n(-c3ccccc3C)c2=O)cc1	16.6%
Cc1ccc(C)c(NC(=O)Cn2nc(C)c3ccccc3c2=O)c1	9%
COc1ccc(S(=O)(=O)N2CCOCC2)cc1NC(=O)CN1C(=O)NC2(CCCCC2C)C1=O (stereo not drawn)	-41.9%
COCCN(C(=O)CCC(=O)Nc1ccccn1)C(C(=O)NCCC(C)C)c1ccc(F)cc1 (stereo not drawn)	5.07%
Cc1ccnc(NC(=O)CSc2cc(=O)n(C)c3ccccc23)c1	19.6%
O=c1ccc(-c2ccc(S(=O)(=O)Nc3ccccc3)o2)n[nH]1	5.76%
O=C(O)c1ccc2c(c1)C(=O)N(NC(=O)c1ccccc1)C2=O	19.4%
O=C(Nc1ccccc1)C1CC(=O)n2ncnc2N1 (stereo not drawn)	6.48%
C=C(C)CSc1[nH]c(=O)cc(C)c1C#N	10.2%
Cc1ccc(C2=Nc3ccccc3N(C(=O)c3ccccc3)C(C)C2)cc1 (stereo not drawn)	-9.05%
O=C(C1CCC(CNc2c(N3CCCC3)c(=O)c2=O)CC1)N1CCc2ccccc21 (stereo not drawn)	1.89%
COc1ccccc1Nc1nc(C)cs1	8.79%
CCN(C(=O)CSc1nnnn1C)c1c(N)n(Cc2ccccc2)c(=O)[nH]c1=O	-22.9%
CCOc1ccccc1NC(=O)NC(C)c1ccc2c(c1)OCO2 (stereo not drawn)	3.52%
COc1ccccc1NS(=O)(=O)c1ccc2oc(SC3CCOC3=O)nc2c1 (stereo not drawn)	-1.09%
Cc1cc(CSc2nc(C)cc(=O)[nH]2)c2ncccc2c1	-3.07%
Cc1cc(C)n2nc(C(=O)Nc3ccc(S(=O)(=O)N4CCCC4)cc3)nc2n1	-8.44%
CN(C)C1(CNC(=O)C2CCN(S(=O)(=O)c3cccc(C(F)(F)F)c3)CC2)CCCCC1	-34.6%

Compound	hERG current change (%, negative = inhibition) at 10uM
CCOc1ccc(OCC)c(NC(=O)c2ccc(CNc3c(N4CCOCC4)c(=O)c3=O)cc2)c1	7.11%
COc1cccc(C2=NOC(C(=O)Nc3ccc(OC)c(OC)c3)C2)c1 (stereo not drawn)	-11.8%
CCCCC(CC(O)COCCC)C(=O)NN (stereo not drawn)	16.1%
CC(C)CNC(=O)c1cc(=O)[nH]c2ccc(S(=O)(=O)Nc3ccc(F)cc3)cc12	10.7%
c1ccc(C2C3=C(Nc4ncnn42)c2ccccc2CCC3)cc1 (stereo not drawn)	6.55%
CC(C)C(=O)NCC(c1cccs1)S(=O)(=O)c1ccc(F)cc1 (stereo not drawn)	16.7%
CCCCc1cc(=O)oc2cc(C)cc(OCC(=O)N[C@@H](CSCc3ccccc3)C(=O)O)c12	15.2%
Cc1cccc(N(Cc2cc3ccc(C)cc3[nH]c2=O)C(=O)c2ccco2)c1	-8.8%
O=C(CSc1nc(O)cc(=O)n1-c1ccccc1)NCc1ccccc1	-0.712%
OC(COc1cccc2ccccc12)CN1CCN(c2ccccc2Cl)CC1 (stereo not drawn)	-50.2%
CCC(CC)C(=O)Nc1nnc(SCC(=O)NC(C)(C)C)s1	5.93%
O=C(CC1C(=O)NCCN1Cc1ccc(Cl)c(F)c1)NC1CCC1 (stereo not drawn)	13.5%
CC(=O)O[C@@]12CO[C@@H]1C[C@H](O)[C@@]1(C)C(=O)[C@H](O)C3=C(C)[C@@H](OC(=O)[C@H](O)[C@@H](NC(=O)c4ccccc4)c4ccccc4)C[C@@](O)([C@@H](OC(=O)c4ccccc4)C12)C3(C)C (stereo partly drawn)	2.07%
CN(Cc1cn(C)c2ccccc12)C(=S)Nc1cc(F)cc(F)c1	-14.9%
CCOc1ccc(CN(C)c2nc(-c3cccnc3)nc3ccccc23)cc1OC	-15.2%
COc1ccc(CNCCc2ccccc2)cc1OCC(N)=O	-12%
CCCCOC(=O)/C=C\C(=O)OCCCC	9.89%
Cc1ccnc(NC(=O)CCC(=O)N(CC(=O)NCc2ccc(F)cc2)CC2CCCO2)c1 (stereo not drawn)	2.42%
Cc1ccc(NC(=O)c2cc([N+](=O)[O-])ccc2N2CCOCC2)cc1S(=O)(=O)N1CCOCC1	-46%
O=C(NCc1ccc(F)cc1)c1cc(S(=O)(=O)N2CCOCC2)ccc1F	-20.6%
O=P(O)(Cc1ccccc1)Cc1ccccc1	18.3%
O=c1c2ccccc2c(C=Nc2ccc(Cl)cn2)c(O)n1-c1cc(Cl)ccc1N1CCOCC1	16.9%

Compound	hERG current change (%, negative = inhibition) at 10uM
COc1cc(/C=C/C(=O)OCC(=O)c2c(N)n(C)c(=O)n(C)c2=O)ccc1OCC#N	-5.23%
C/C(=N\NC(=O)c1cc(-c2ccc(C)s2)nc2ccccc12)c1cccnc1	-9.41%
O=c1c2c3c(sc2nc2n1CCCC2)CCCCC3	-8.65%
COc1ccc(-c2cc3ccccc3n2CC(O)CNCCO)cc1.O=C(O)C(=O)O (stereo not drawn)	3.61%
Cc1cc(Cl)c(S(=O)(=O)NC2CCCC2)cc1OCC(N)=O	-4.58%
O=C1CC(N(O)C2CC(=O)N(Cc3ccccc3)C2=O)C(=O)N1Cc1ccccc1 (stereo not drawn)	-44.8%
COc1ccccc1/C=C/C(=O)c1c2c(c(C)[nH]c1=O)CCCC2	-3.23%
CC(C)n1c(C(F)(F)F)nc2cc(C(=O)N3CCCCC3)ccc21	-41.4%
C=CCn1c2ccccc2c2nnc(SCCN3CCOCC3)nc21	-10.3%
Cc1ccc(Cn2ncc3c(N4CCOCC4)ncnc32)cc1	-27.8%
Nc1c(S(=O)(=O)c2cccs2)c2nc3ccccc3nc2n1CCc1ccccc1	-20.6%
CN(C)S(=O)(=O)c1ccc(S(=O)(=O)N2CCCC(C(=O)NC3CC3)C2)cc1 (stereo not drawn)	9.57%
Cc1cc(C(=O)CSc2nnnn2-c2ccccc2)c(C)n1-c1ccc2c(c1)OCO2	-4.47%
CCN(CC)S(=O)(=O)c1ccc(N2CCOCC2)c(NS(=O)(=O)c2ccc(C(C)C)cc2)c1	-6.87%
Cl.OCCN1CCN(CC(O)COc2ccc(-c3ccccc3)cc2)CC1 (stereo not drawn)	-45.9%
C=CCSc1nc(N)c(C#N)c(-c2ccc(C)cc2)c1C#N	4.13%
Cc1nc2ccc(NC(=S)N3CCOCC3)cc2nc1C	5.88%
Cc1ccc2sc(=O)[nH]c2c1	23.4%
COc1ccc(OC)c(-n2c(SCC(N)=O)nnc2-c2c[nH]c3ccccc23)c1	2.45%
Cc1ccc(N(C(C)C(=O)N2CCCCC2)S(C)(=O)=O)cc1C (stereo not drawn)	-8.59%
COc1ccc(Br)cc1CNC(=O)C1CCN(S(=O)(=O)N2CCCC2)CC1	-36.2%
O=C(COC(=O)/C=C/c1ccc(F)cc1)Nc1cccc(S(=O)(=O)N2CCCC2)c1	18.5%

Compound	hERG current change (%, negative = inhibition) at 10uM
O=C(C1CC1)n1cc(C(=S)N2CCOCC2)c2ccccc21	-9.19%
O=[N+]([O-])c1ccc(-c2c(-c3ccccc3)ncc3cc(F)ccc23)cc1	1.58%
CCN(CC)S(=O)(=O)c1ccc2c(c1)nc(CCC(=O)O)n2CC	12.3%
CC1(C)CC(C(=O)Nc2ccccc2)C(=O)O1 (stereo not drawn)	9.98%
N/C(=N\OC(=O)c1ccc(Cl)cc1[N+](=O)[O-])c1ccccn1	12.8%
Nc1nc(NCCc2ccccc2)nc(NCc2ccccc2)c1[N+](=O)[O-]	20.4%
Cc1ccc(/C=N/NC(=O)c2csc(C)c2)o1	10.6%
Cc1ccc(C)c(NC(=O)CN(C)C(=O)CN2C(=O)NC3(CCc4ccccc43)C2=O)c1 (stereo not drawn)	15.2%
Cn1cnc(C(=O)N2CCN(C(=O)OC(C)(C)C)CC2)c1C(=O)N1CCN(C(=O)OC(C)(C)C)CC1	24.4%
CN1CCN(NC(=O)Nc2cccc(F)c2)CC1	17.3%
COCC(=O)N1CCC(Oc2ccc(C(=O)NCCc3ncccc3C)cc2)CC1	20.5%
CC1(C)N=C(/C=N/O)CN1O	11.7%
Cc1oc(CC(C)C)c(CN2CCCC2)c1C(=O)O.Cl	-5.47%
Nc1nc(SCC(=O)NCCN2CCOCC2)nc2sc3c(c12)CCC3	-65.9%
O=C(/C=C/c1cccs1)N1CCCC1	33.1%
Cc1cc(/C=C2/NC(=O)NC2=O)c(C)n1-c1ccc(C#N)cc1	-34.6%
O=C(Nc1cccc(S(=O)(=O)N2CCCCC2)c1)c1cnccn1	-2.1%
O=C(Cc1ccccc1)N1CCC2(CC1)NCCc1[nH]cnc12	38.2%
CC(C)C(NC(=O)c1ccc(C(C)(C)C)cc1)C(=O)NC1=NCCS1 (stereo not drawn)	-6.13%
Cc1ccccc1NC(=O)c1ccc2ccccc2c1	-8.12%
COc1ccc(CCNC(=O)C2CCCN2C(=O)Nc2ccc(Cl)cc2)cc1OC (stereo not drawn)	-8.85%
